Results from patent publication EP4154878A1, “APPLICATION OF ACTIVE […] ROOT OF […] OR PHARMACEUTICALLY ACCEPTABLE SALT THEREOF IN PREPARING ANTIVIRAL DRUG” (priority 2020, dated 2021).

Target: T1, SARS-CoV-2 HR1P and HR2P (Severe acute respiratory syndrome coronavirus 2, UniProt P0DTC2)
T1 construct: made in house; host or cells: chemical peptide synthesis (no expression host)
Type: biochemical

O=C(/C=C/c1ccc(O)c2c1[C@H](C(=O)O[C@H](Cc1ccc(O)c(O)c1)C(=O)O)[C@@H](c1ccc(O)c(O)c1)O2)O[C@H](Cc1ccc(O)c(O)c1)C(=O)O [salvianolic acid B]
percentage of an α-helix by combination by HR1P and HR2P: 22.24%
